Experimental data taken from PMC12820563, “FoxP3 forms a head-to-head dimer in vivo and stabilizes its multimerization on adjacent microsatellites”.
This is one part of the list.

Each sequence was assayed against T1, MBP-FoxP1dN (Mus musculus, UniProt P58462 326-579) (assay: PD-seq (MBP pull-down with sequencing); 20 mM Tris-HCl pH 7.5, 100 mM NaCl, 1.5 mM MgCl2, 0.4 uM protein, 0.1 uM dsDNA library, 30 min, room temperature, amylose pull-down; high values mean tight binding). Settings: protein: recombinant; tags: His6-MBP; chain copies: 2; dsDNA, one strand shown.
T1 sequence: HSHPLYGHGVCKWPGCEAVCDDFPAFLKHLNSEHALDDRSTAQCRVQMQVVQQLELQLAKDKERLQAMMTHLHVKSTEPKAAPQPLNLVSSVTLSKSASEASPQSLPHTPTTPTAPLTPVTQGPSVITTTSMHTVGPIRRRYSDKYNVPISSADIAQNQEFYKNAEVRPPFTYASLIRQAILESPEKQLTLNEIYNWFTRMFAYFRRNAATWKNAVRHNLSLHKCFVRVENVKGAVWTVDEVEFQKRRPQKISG
Outline: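 A degenerate double-stranded DNA library, filled in with Klenow, was added at 0.1 µM to 0.4 µM His6-MBP-tagged mouse FoxP3 or FoxP1 fragment lacking the N-terminus, expressed in E. coli. Incubation lasted 30 min at room temperature in Tris pH 7.5 buffer with NaCl and MgCl2, after which complexes were collected on amylose resin, washed three times, digested with proteinase K to free the DNA, barcoded by PCR and sequenced by Illumina. Binding is the pooled-replicate reads-per-million enrichment of pull-down over input.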
With “GATGATTGTTCTCCCAGCTGATGAATTACAGTTGTCGAGTAAACAAATTTTCCTAATCTTTCTGTTCAAGCGCCATCTAC” the binding signal was 1.46 RPM ratio (pull-down/input). With “GATGATTGTTCTCCCAGCTGATGAATTCAATGTGTCGAGTAAACAAATTTTCCTAATCTTTCTGTTCAAGCGCCATCTAC” the binding signal was 0.916 RPM ratio (pull-down/input). For “GATGATTGTTCTCCCAGCTGATGAATTCACCCTCTCGAGTAAACAAATTTTCCTAATCTTTCTGTTCAAGCGCCATCTAC”, the binding signal was 0.88 RPM ratio (pull-down/input). In the case of “GATGATTGTTCTCCCAGCTGATGAATTGCTGATGTCGAGTAAACAAATTTTCCTAATCTTTCTGTTCAAGCGCCATCTAC”, the binding signal was 1.22 RPM ratio (pull-down/input). For “GATGATTGTTCTCCCAGCTGATGAATTAATGTCCTCGAGTAAACAAATTTTCCTAATCTTTCTGTTCAAGCGCCATCTAC”, the binding signal was 0.913 RPM ratio (pull-down/input). In the case of “GATGATTGTTCTCCCAGCTGATGAATTCGGTGGGTCGAGTAAACAAATTTTCCTAATCTTTCTGTTCAAGCGCCATCTAC”, the binding signal was 0.746 RPM ratio (pull-down/input). With “GATGATTGTTCTCCCAGCTGATGAATTCCGGCGATCGAGTAAACAAATTTTCCTAATCTTTCTGTTCAAGCGCCATCTAC” the binding signal was 0.757 RPM ratio (pull-down/input). In the case of “GATGATTGTTCTCCCAGCTGATGAATTGCGCCGCTCGAGTAAACAAATTTTCCTAATCTTTCTGTTCAAGCGCCATCTAC”, the binding signal was 1.01 RPM ratio (pull-down/input). “GATGATTGTTCTCCCAGCTGATGAATTAAGGACCTCGAGTAAACAAATTTTCCTAATCTTTCTGTTCAAGCGCCATCTAC” was tested, and the binding signal was 0.841 RPM ratio (pull-down/input). “GATGATTGTTCTCCCAGCTGATGAATTCCTCTCTTCGAGTAAACAAATTTTCCTAATCTTTCTGTTCAAGCGCCATCTAC” was tested, and the binding signal was 0.833 RPM ratio (pull-down/input). With “GATGATTGTTCTCCCAGCTGATGAATTGGTCTATTCGAGTAAACAAATTTTCCTAATCTTTCTGTTCAAGCGCCATCTAC” the binding signal was 1.05 RPM ratio (pull-down/input). “GATGATTGTTCTCCCAGCTGATGAATTATAGCTCTCGAGTAAACAAATTTTCCTAATCTTTCTGTTCAAGCGCCATCTAC” was tested, and the binding signal was 0.937 RPM ratio (pull-down/input). “GATGATTGTTCTCCCAGCTGATGAATTGAGTCATTCGAGTAAACAAATTTTCCTAATCTTTCTGTTCAAGCGCCATCTAC” was tested, and the binding signal was 0.995 RPM ratio (pull-down/input). “GATGATTGTTCTCCCAGCTGATGAATTCGTCCATTCGAGTAAACAAATTTTCCTAATCTTTCTGTTCAAGCGCCATCTAC” was tested, and the binding signal was 0.829 RPM ratio (pull-down/input). In the case of “GATGATTGTTCTCCCAGCTGATGAATTGGACCCATCGAGTAAACAAATTTTCCTAATCTTTCTGTTCAAGCGCCATCTAC”, the binding signal was 0.846 RPM ratio (pull-down/input). With “GATGATTGTTCTCCCAGCTGATGAATTACGAATGTCGAGTAAACAAATTTTCCTAATCTTTCTGTTCAAGCGCCATCTAC” the binding signal was 1 RPM ratio (pull-down/input). In the case of “GATGATTGTTCTCCCAGCTGATGAATTATGTCAGTCGAGTAAACAAATTTTCCTAATCTTTCTGTTCAAGCGCCATCTAC”, the binding signal was 1.04 RPM ratio (pull-down/input). “GATGATTGTTCTCCCAGCTGATGAATTAATCGGTTCGAGTAAACAAATTTTCCTAATCTTTCTGTTCAAGCGCCATCTAC” was tested, and the binding signal was 0.972 RPM ratio (pull-down/input). In the case of “GATGATTGTTCTCCCAGCTGATGAATTTCCGACTTCGAGTAAACAAATTTTCCTAATCTTTCTGTTCAAGCGCCATCTAC”, the binding signal was 0.805 RPM ratio (pull-down/input). “GATGATTGTTCTCCCAGCTGATGAATTTTTTACATCGAGTAAACAAATTTTCCTAATCTTTCTGTTCAAGCGCCATCTAC” was tested, and the binding signal was 0.953 RPM ratio (pull-down/input). With “GATGATTGTTCTCCCAGCTGATGAATTAAACCTGTCGAGTAAACAAATTTTCCTAATCTTTCTGTTCAAGCGCCATCTAC” the binding signal was 0.903 RPM ratio (pull-down/input). For “GATGATTGTTCTCCCAGCTGATGAATTCAGAGAGTCGAGTAAACAAATTTTCCTAATCTTTCTGTTCAAGCGCCATCTAC”, the binding signal was 0.777 RPM ratio (pull-down/input). With “GATGATTGTTCTCCCAGCTGATGAATTTCCGCCTTCGAGTAAACAAATTTTCCTAATCTTTCTGTTCAAGCGCCATCTAC” the binding signal was 0.87 RPM ratio (pull-down/input). For “GATGATTGTTCTCCCAGCTGATGAATTAGTTGAGTCGAGTAAACAAATTTTCCTAATCTTTCTGTTCAAGCGCCATCTAC”, the binding signal was 0.85 RPM ratio (pull-down/input). “GATGATTGTTCTCCCAGCTGATGAATTAAACTACTCGAGTAAACAAATTTTCCTAATCTTTCTGTTCAAGCGCCATCTAC” was tested, and the binding signal was 1.01 RPM ratio (pull-down/input). In the case of “GATGATTGTTCTCCCAGCTGATGAATTTAGCTAGTCGAGTAAACAAATTTTCCTAATCTTTCTGTTCAAGCGCCATCTAC”, the binding signal was 0.944 RPM ratio (pull-down/input). For “GATGATTGTTCTCCCAGCTGATGAATTCAGGAAGTCGAGTAAACAAATTTTCCTAATCTTTCTGTTCAAGCGCCATCTAC”, the binding signal was 0.816 RPM ratio (pull-down/input). For “GATGATTGTTCTCCCAGCTGATGAATTAGCGGATTCGAGTAAACAAATTTTCCTAATCTTTCTGTTCAAGCGCCATCTAC”, the binding signal was 0.845 RPM ratio (pull-down/input). “GATGATTGTTCTCCCAGCTGATGAATTGTGACATTCGAGTAAACAAATTTTCCTAATCTTTCTGTTCAAGCGCCATCTAC” was tested, and the binding signal was 1.3 RPM ratio (pull-down/input). For “GATGATTGTTCTCCCAGCTGATGAATTCAATACTTCGAGTAAACAAATTTTCCTAATCTTTCTGTTCAAGCGCCATCTAC”, the binding signal was 0.95 RPM ratio (pull-down/input). In the case of “GATGATTGTTCTCCCAGCTGATGAATTAAGGGCATCGAGTAAACAAATTTTCCTAATCTTTCTGTTCAAGCGCCATCTAC”, the binding signal was 1.04 RPM ratio (pull-down/input). For “GATGATTGTTCTCCCAGCTGATGAATTTAAAAAGTCGAGTAAACAAATTTTCCTAATCTTTCTGTTCAAGCGCCATCTAC”, the binding signal was 0.928 RPM ratio (pull-down/input). In the case of “GATGATTGTTCTCCCAGCTGATGAATTCGCTAAATCGAGTAAACAAATTTTCCTAATCTTTCTGTTCAAGCGCCATCTAC”, the binding signal was 0.979 RPM ratio (pull-down/input). For “GATGATTGTTCTCCCAGCTGATGAATTGAATCTCTCGAGTAAACAAATTTTCCTAATCTTTCTGTTCAAGCGCCATCTAC”, the binding signal was 0.83 RPM ratio (pull-down/input). With “GATGATTGTTCTCCCAGCTGATGAATTGGTCCCATCGAGTAAACAAATTTTCCTAATCTTTCTGTTCAAGCGCCATCTAC” the binding signal was 0.976 RPM ratio (pull-down/input). “GATGATTGTTCTCCCAGCTGATGAATTATGAAAGTCGAGTAAACAAATTTTCCTAATCTTTCTGTTCAAGCGCCATCTAC” was tested, and the binding signal was 0.906 RPM ratio (pull-down/input). In the case of “GATGATTGTTCTCCCAGCTGATGAATTTTTCCCGTCGAGTAAACAAATTTTCCTAATCTTTCTGTTCAAGCGCCATCTAC”, the binding signal was 0.892 RPM ratio (pull-down/input). With “GATGATTGTTCTCCCAGCTGATGAATTACGAGGCTCGAGTAAACAAATTTTCCTAATCTTTCTGTTCAAGCGCCATCTAC” the binding signal was 0.986 RPM ratio (pull-down/input). For “GATGATTGTTCTCCCAGCTGATGAATTCTTAGCGTCGAGTAAACAAATTTTCCTAATCTTTCTGTTCAAGCGCCATCTAC”, the binding signal was 0.944 RPM ratio (pull-down/input). For “GATGATTGTTCTCCCAGCTGATGAATTTGACACTTCGAGTAAACAAATTTTCCTAATCTTTCTGTTCAAGCGCCATCTAC”, the binding signal was 0.926 RPM ratio (pull-down/input).
